Out of some 310,000 compounds screened, about 2,200 (0.71%) showed an effect of 50% or more. Effects have a minus sign here. The list shows a part of the results.
target: human ether-à-go-go-related gene (hERG) potassium channel (human, UniProt Q12809); assay: primary screen, population patch clamp on CHO cells stably expressing hERG
Sequence (Q12809 whole entry, looked up): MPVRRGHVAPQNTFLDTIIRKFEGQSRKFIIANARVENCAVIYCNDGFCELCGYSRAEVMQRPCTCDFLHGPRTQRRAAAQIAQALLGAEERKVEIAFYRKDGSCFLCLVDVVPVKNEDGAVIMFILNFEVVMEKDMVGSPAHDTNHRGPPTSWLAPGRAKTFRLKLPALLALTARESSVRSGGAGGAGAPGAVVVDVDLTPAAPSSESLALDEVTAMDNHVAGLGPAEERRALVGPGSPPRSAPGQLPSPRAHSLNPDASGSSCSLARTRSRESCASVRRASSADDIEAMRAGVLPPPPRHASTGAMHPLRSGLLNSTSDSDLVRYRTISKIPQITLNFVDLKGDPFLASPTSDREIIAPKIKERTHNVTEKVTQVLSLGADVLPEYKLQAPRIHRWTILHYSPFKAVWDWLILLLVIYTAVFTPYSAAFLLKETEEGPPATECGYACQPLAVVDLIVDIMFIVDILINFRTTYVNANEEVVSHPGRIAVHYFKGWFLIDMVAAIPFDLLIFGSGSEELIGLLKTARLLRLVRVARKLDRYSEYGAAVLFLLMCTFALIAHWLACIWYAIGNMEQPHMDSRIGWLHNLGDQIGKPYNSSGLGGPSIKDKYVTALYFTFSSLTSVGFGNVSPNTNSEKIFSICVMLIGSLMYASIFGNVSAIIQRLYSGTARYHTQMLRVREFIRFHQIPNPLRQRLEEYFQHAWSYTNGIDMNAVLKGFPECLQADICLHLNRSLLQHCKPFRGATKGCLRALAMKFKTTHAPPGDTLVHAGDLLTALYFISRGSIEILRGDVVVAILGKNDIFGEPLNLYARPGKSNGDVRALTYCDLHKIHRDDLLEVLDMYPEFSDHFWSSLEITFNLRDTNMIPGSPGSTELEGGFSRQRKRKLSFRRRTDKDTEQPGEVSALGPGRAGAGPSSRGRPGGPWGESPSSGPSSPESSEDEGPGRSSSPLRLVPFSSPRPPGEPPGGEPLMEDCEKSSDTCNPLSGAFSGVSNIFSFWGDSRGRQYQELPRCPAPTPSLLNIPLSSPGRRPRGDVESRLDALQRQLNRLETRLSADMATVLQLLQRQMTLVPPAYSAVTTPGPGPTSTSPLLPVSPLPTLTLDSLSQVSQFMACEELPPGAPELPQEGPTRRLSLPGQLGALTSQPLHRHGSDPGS

Row | Compound | hERG current change (%, negative = inhibition) at 1uM [%]
1 | Cn1cc(CC(=O)NCCN2CCOCC2)c2ccccc21 | 11.7
2 | CC(C)Cn1c(CN2CCN(c3ccccc3F)CC2)nc2c1c(=O)[nH]c(=O)n2C | 10.1
3 | COc1cc(NC(=O)CCc2nnc3ccc(N4CCC(C)CC4)nn23)cc(OC)c1 | 16.4
4 | CNC(=S)Nc1ccc(C23CC4CC(CC(C4)C2)C3)cc1 | 19.9
5 | CCOC(=O)c1ccc(NC(=O)Cn2nnc(-c3ccc(F)cc3)n2)cc1 | 7.91
6 | COc1cccc(CNC(=O)C2CCCN(S(=O)(=O)N3CC(C)CC(C)C3)C2)c1 (stereo not shown) | 7.38
7 | O=C(CCC(=O)c1ccc(Oc2ccccc2)cc1)Nc1cccc(Cl)c1 | 6.65
8 | O=C(NCCC(=O)N1CCN(S(=O)(=O)c2ccccc2)CC1)c1ccc(Br)cc1 | 14.5
9 | N#CCCNS(=O)(=O)c1ccc(C(=O)OCC2CCCCC2)cc1 | 15.9
10 | CCCCN(CCCC)C(=O)C1(P(=O)(c2ccccc2)c2ccccc2)CCC1 | 7.73
11 | CCN1CCCC1CNC(=O)CN(C)S(=O)(=O)c1ccc(Cl)cc1 (stereo not shown) | -0.769
12 | Cc1ccc(OCC(=O)Oc2ccc(C(C)C)cc2)cc1 | 13.6
13 | Cc1ccc2nc(-c3ccc(NS(=O)(=O)c4ccc(F)cc4)cc3)sc2c1 | 4.76
14 | CC1CC(C)CN(C(=O)COC(=O)c2ccc([N+](=O)[O-])o2)C1 (stereo not shown) | 3.76
15 | OCCCNc1ncnc2c1cnn2-c1ccc(Cl)cc1 | 20.9
16 | COc1ccc(-n2nnc3c(=O)n(CC(=O)N4CCCC4)cnc32)cc1 | 4.15
17 | COc1cc(C[C@@H]2C(=O)OC[C@H]2Cc2ccc(OC)c(OC)c2)ccc1O | 10.7
18 | CSc1nc(C)c(CCOCc2ccc(F)cc2)c(=O)[nH]1 | 8.26
19 | Cc1ccc2nc(SCC(=O)Nc3cccc(S(=O)(=O)N(C)C)c3)[nH]c2c1 | 7.67
20 | CSc1nnc(NC(=O)c2nc(S(=O)(=O)Cc3ccc(C)cc3)ncc2Cl)s1 | 19.3
21 | C=CCNC(=S)NNC(=O)c1ccncc1 | 6.98
22 | Cc1cc(Cl)ccc1OCC(=O)OC(C)C(=O)N(C)C (stereo not shown) | 12.7

Row | Compound | hERG current change (%, negative = inhibition) at 1uM [%]
23 | COCCOC(=O)C1=C(C)NC(C)=C(C(=O)OCCOC)C1/C=C/c1ccccc1OC | 8.08
24 | Cc1cc(C)c2cc(CN(Cc3cccnc3)C(=O)c3ccc(F)cc3)c(Cl)nc2c1 | -26.4
25 | CC12CN(C(=O)c3ccccc3Br)CC(C)(CN(C(=O)c3ccccc3Br)C1)C2=O | 12.3
26 | Cc1ccc(C)c(Nc2nc3ccc(C)cc3n3cnnc23)c1 | 11.2
27 | Cc1ccc(NS(=O)(=O)c2cc([N+](=O)[O-])ccc2NNC(=S)Nc2cc(C)ccc2C)c(C)c1 | -4.13
28 | CC1CC(C)CN(CCOc2cccc(Cl)c2Cl)C1.O=C(O)C(=O)O (stereo not shown) | 11.4
29 | COc1ccc(OCC(=O)Nc2cc3oc4ccccc4c3cc2OC)cc1 | 17.1
30 | O=C(Nc1ccc2c(c1)OCCO2)c1cc2ccccc2o1 | 12.2
31 | Cc1ccccc1CS(=O)(=O)CCC(=O)NCc1ccccn1 | 18.4
32 | CC(=O)N1CCN(C(=O)c2ccc(Oc3ccccc3)cc2)CC1 | 10.8
33 | O=C(NCc1ccc(F)cc1)C1CCCN(S(=O)(=O)c2cccc3nonc23)C1 (stereo not shown) | 17.9
34 | CCN1CCN(C/C(C)=C/c2ccccc2)CC1 | 11.3
35 | COCCCNC(=S)N1CCN(c2ccc([N+](=O)[O-])cc2)CC1 | -64.8
36 | CCN(Cc1ccccc1)C(=O)C(C)OC(=O)c1cc(S(=O)(=O)Nc2c(C)n(C)n(-c3ccccc3)c2=O)ccc1C (stereo not shown) | -3.23
37 | O=[N+]([O-])c1ccc(-c2cnc(NO)nc2)cc1 | 15.7
38 | CCOC(=O)C1=C(N)Oc2cc(O)ccc2C1c1cccc([N+](=O)[O-])c1 (stereo not shown) | 22
39 | Cc1nn(-c2ccccc2)c(C)c1C(=O)NCc1ccc(S(N)(=O)=O)cc1 | 20.3
40 | CCCCn1c(N)c(N(CCOC)C(=O)CSc2nnc(-c3ccncc3)n2CCC)c(=O)[nH]c1=O | 7.38
41 | Cc1cccc(OCCNC(=O)c2ncn[nH]2)c1 | -7.55
42 | CC(=O)N1N=C(C)CC1c1ccc(OCc2ccccc2)cc1 (stereo not shown) | 5.87
43 | CCCc1ccc(OCC(O)CN2CCN(C(=O)OCC)CC2)cc1.Cl (stereo not shown) | -5.38
44 | Cc1ccc(Cn2cnc3ccccc32)cc1C | 8.15

Row | Compound | hERG current change (%, negative = inhibition) at 1uM [%]
45 | O=C(Nc1cccc(NC(=O)C2CC3CCCC(C2)C3=O)n1)C1CC2CCCC(C1)C2=O (stereo not shown) | 7.2
46 | Oc1c(C=NCc2ccncc2)sc2ccccc12 | 6.72
47 | COC(=O)c1ccccc1NC(=O)CCCN1C(=O)C(c2ccccc2)Oc2cccnc21 (stereo not shown) | 27.7
48 | O=C(C[n+]1cc2ccccc2c2ccccc21)c1ccccc1.[Br-] | -41.7
49 | CCOC(=O)c1c(NC(=S)NC(=O)/C=C/c2cccs2)sc(C)c1C | 13.2
50 | O=C1CCCc2nc(NCc3ccco3)ncc21 | 26.8
51 | NC(=O)Nc1ccc2c(c1)OCCO2 | 6.12
52 | COc1ccc(C2=CC(=O)C[C@H](c3ccc(Cl)cc3)C2)cc1 | 6.18
53 | O=C1NC(Cc2ccccc2)c2nc3ccc(Cl)cc3c(=O)n2-c2cc(Cl)ccc21 (stereo not shown) | 12.7
54 | Cc1cc([N+](=O)[O-])c(C(C)(C)C)cc1N | 6.92
55 | COc1ccc(N2CCN(C(c3cccs3)C(C)NC(=O)C(=O)N3CCCCC3)CC2)cc1 (stereo not shown) | 5.19
56 | Cn1nc(C(F)(F)F)c(-c2cccc(C(F)(F)F)c2)c1NC(=O)c1cccnc1 | 5.38
57 | CC1(C)C(C=C(Cl)Cl)C1C(=O)OCc1cccc(Oc2ccccc2)c1 (stereo not shown) | 13.7
58 | CC1CC(C)CN(C(=O)CCCn2c(=S)[nH]c3ccccc3c2=O)C1 (stereo not shown) | -0.582
59 | CCOC(=O)N1CCN(S(=O)(=O)c2ccc3c(c2)CCN3C(=O)CC)CC1 | 6.11
60 | CN1/C(=C\C(=O)c2ccccc2Cl)c2ccccc2CC1(C)C | 2.56
61 | O=C(CSC1CCCCC1)Nc1ccccc1Br | 6.47
62 | O=C(CN1C(=O)NC2(CCc3ccccc32)C1=O)c1c[nH]c2ccccc12 (stereo not shown) | 18.9
63 | O=C(COC(=O)c1cccc(Br)c1)NCCc1ccccc1 | 4.47
64 | Cc1ccc(N(C)S(=O)(=O)c2cccc(C(=O)NNC(=O)c3ccncc3)c2)cc1 | 13.8
65 | Cc1ccc(NC(=O)CN2C(=O)S/C(=C\c3ccc(C(=O)O)cc3)C2=O)cc1 | 20.1
66 | O=C(c1ccc2nc(Cc3cccc(Cl)c3)oc2c1)N1CCOCC1 | 8.64

Row | Compound | hERG current change (%, negative = inhibition) at 1uM [%]
67 | O=C(CSc1nnc2ccccn12)c1ccc2c(c1)OCCO2 | 7.62
68 | COCCOC(=O)N/C=C\c1nc2ccccc2c(=O)[nH]1 | 5.13
69 | CCOCCCNC(=O)CSc1nc2nc(C)c(Cc3ccccc3)c(C)n2n1 | 10
70 | O=C(C1CCCN1S(=O)(=O)c1cccc2cccnc12)N1CCc2ccccc2C1 (stereo not shown) | -19.9
71 | N#Cc1cc2c(=O)n3ccccc3nc2n(-c2ccc(Cl)cc2)c1=O | 15.8
72 | O=C(NCc1ccccc1)c1ccc(S(=O)(=O)N2CCCc3ccccc32)cc1 | 13.5
73 | CC(CNC(=O)C(C)(C)C)NC(=O)C(C)(C)C (stereo not shown) | 1.97
74 | O=C(c1cccs1)N1CCN(Cc2nc3ccccc3c(=O)[nH]2)CC1 | -8.39
75 | CCn1c(Cc2ccccc2)nnc1SCC(=O)Nc1ccc(OC)cc1 | 16
76 | COC(=O)c1ccc(NC(=O)N2CCOCC2)cc1 | 1.42
77 | CCCN(CCC)C(=O)CCS(=O)(=O)c1cccc2nsnc12 | 1.18
78 | CCOC(=O)N1CCN(S(=O)(=O)c2ccc(C(=O)Nc3nc4ccccc4s3)cc2)CC1 | 11.8
79 | COc1ccc(/C=N/OCC(=O)OCC(=O)N(C)c2ccccc2)cc1 | 1.79
80 | O=C(CSc1nnc(NC(=O)c2c(F)cccc2F)s1)NC1CC1 | 18.3
81 | COc1ccc2nc(N3CCN(C(=O)c4ccc5ncsc5c4)CC3)sc2c1 | 5.19
82 | CCC(C)(C)n1nnnc1C(c1cc2ccc(C)cc2[nH]c1=O)N(Cc1cccnc1)Cc1ccco1 (stereo not shown) | -2.99
83 | O=C(NCc1ccco1)c1ccc(-c2cccc(Cl)c2)o1 | 7.2
84 | COc1cc(C(=O)OCC(=O)NC(=O)NC2CCCCC2)cc(Cl)c1OC | -10.3
85 | Cn1nnnc1SCc1ccc(F)cc1 | 10.6
86 | O=C(CSc1nc2ccccc2c(=O)[nH]1)Nc1ccccc1O | 11.2
87 | COc1ccc2cc(C(=O)C3CCCN(C(=O)Cc4c(C)noc4C)C3)ccc2c1 (stereo not shown) | -34.3
88 | COc1ccc(Nc2cc(C(=O)NCc3ccco3)c3ccccc3n2)c(OC)c1 | 8.32

— paper PMC4336329 (PLoS ONE, 2015)
